# Test results: the supplement of paper PMC8728848
# This is one part of the list.
# B1: GNA (Galanthus nivalis), P30617 (protein)
# chain: MAKASLLILAAIFLGVITPSCLSDNILYSGETLSTGEFLNYGSFVFIMQEDCNLVLYDVDKPIWATNTGGLSRSCFLSMQTDGNLVVYNPSNKPIWASNTGGQNGNYVCILQKDRNVVIYGTDRWATGTHTGLVGIPASPPSEKYPTAGKIKLVTAK
# Legend:
# Test in all cases: glycan array binding signal (z-score within array); higher = stronger binding
# Conditions in all cases: glycan notation: IUPAC condensed, linker removed
# [1] = molecular target: Neu5Ac(a2-8)Neu5Ac(a2-3)Gal(b1-3)GalNAc(b1-4)[Neu5Ac(a2-3)]Gal(b1-4)Glc
# Method in brief: (§1)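 Glycan array data were curated from 3228 arrays in the Consortium for Functional Glycomics database and kept only where the protein sequence was available. Glycan names were converted to IUPAC-condensed notation, and columns mapping to the same glycan were averaged. The binding signal is a within-array Z-score, averaged across arrays of the same protein sequence at different concentrations or buffers and across linkers. Negative Z-scores can be read as non-binding.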
# [2] = molecular target: Neu5Ac(a2-8)Neu5Ac(a2-3)Gal(b1-3)GalNAc(b1-4)[Neu5Ac(a2-8)Neu5Ac(a2-3)]Gal(b1-4)Glc
# Method in brief: as §1
# [3] = molecular target: Neu5Ac(a2-8)Neu5Ac(a2-3)Gal(b1-4)Glc
# Method in brief: as §1
# [4] = molecular target: Neu5Ac(a2-8)Neu5Ac(a2-3)Gal(b1-4)GlcNAc
# Method in brief: as §1
# [5] = molecular target: Neu5Ac(a2-8)Neu5Ac(a2-3)[Gal(b1-3)GalNAc(b1-4)]Gal(b1-4)Glc
# Method in brief: as §1
# [6] = molecular target: Neu5Ac(a2-8)Neu5Ac(a2-3)[GalNAc(b1-4)]Gal(b1-4)Glc
# Method in brief: as §1
# [7] = molecular target: Neu5Ac(a2-8)Neu5Ac(a2-8)Neu5Ac
# Method in brief: as §1
# [8] = molecular target: Neu5Ac(a2-8)Neu5Ac(a2-8)Neu5Ac(a2-3)Gal(b1-4)Glc
# Method in brief: as §1
# [9] = molecular target: Neu5Ac(a2-8)Neu5Ac(a2-8)Neu5Ac(a2-3)[Gal(b1-3)GalNAc(b1-4)]Gal(b1-4)Glc
# Method in brief: as §1
# [10] = molecular target: Neu5Ac(a2-8)Neu5Ac(a2-8)Neu5Ac(a2-3)[GalNAc(b1-4)]Gal(b1-4)Glc
# Method in brief: as §1
# [11] = molecular target: Neu5Ac(a2-8)Neu5Ac(a2-8)Neu5Ac(a2-8)Neu5Ac(a2-3)[GalNAc(b1-4)]Gal(b1-4)Glc
# Method in brief: as §1
# [12] = molecular target: Neu5Ac(a2-8)Neu5Gc(a2-3)Gal(b1-4)GlcNAc
# Method in brief: as §1
# Neu5Ac(b1-6)GalNAc = molecular target: Neu5Ac(b1-6)GalNAc
# Method in brief: as §1
# [13] = molecular target: Neu5Ac(b2-6)Gal(b1-4)GlcNAc
# Method in brief: as §1
# Neu5Ac(b2-6)GalNAc = molecular target: Neu5Ac(b2-6)GalNAc
# Method in brief: as §1
# [14] = molecular target: Neu5Ac9Ac(a2-3)Gal(b1-3)GlcNAc
# Method in brief: as §1
# [15] = molecular target: Neu5Ac9Ac(a2-3)Gal(b1-4)GlcNAc
# Method in brief: as §1
# [16] = molecular target: Neu5Ac9Ac(a2-6)Gal(b1-4)GlcNAc
# Method in brief: as §1
# [17] = molecular target: Neu5Gc(a2-3)Gal(b1-3)GlcNAc
# Method in brief: as §1
# [18] = molecular target: Neu5Gc(a2-3)Gal(b1-3)[Fuc(a1-4)]GlcNAc
# Method in brief: as §1
# Neu5Gc(a2-3)Gal(b1-4)Glc = molecular target: Neu5Gc(a2-3)Gal(b1-4)Glc
# Method in brief: as §1
# [19] = molecular target: Neu5Gc(a2-3)Gal(b1-4)GlcNAc
# Method in brief: as §1
# [20] = molecular target: Neu5Gc(a2-3)Gal(b1-4)GlcNAc(b1-3)Gal(b1-4)GlcNAc(b1-2)Man(a1-3)[Neu5Gc(a2-3)Gal(b1-4)GlcNAc(b1-3)Gal(b1-4)GlcNAc(b1-2)Man(a1-6)]Man(b1-4)GlcNAc(b1-4)GlcNAc
# Method in brief: as §1
# [21] = molecular target: Neu5Gc(a2-3)Gal(b1-4)[Fuc(a1-3)]GlcNAc
# Method in brief: as §1
# [22] = molecular target: Neu5Gc(a2-6)Gal(b1-4)GlcNAc
# Method in brief: as §1
# Neu5Gc(a2-6)GalNAc = molecular target: Neu5Gc(a2-6)GalNAc
# Method in brief: as §1
# [23] = molecular target: Neu5Gc(a2-8)Neu5Ac(a2-3)Gal(b1-4)GlcNAc
# Method in brief: as §1
# [24] = molecular target: Neu5Gc(a2-8)Neu5Gc(a2-3)Gal(b1-4)GlcNAc
# Method in brief: as §1
# [25] = molecular target: Neu5Gc(a2-8)Neu5Gc(a2-3)Gal(b1-4)GlcNAc(b1-3)Gal(b1-4)GlcNAc
# Method in brief: as §1
# [26] = molecular target: Neu5Gc(a2-8)Neu5Gc(a2-6)Gal(b1-4)GlcNAc
# Method in brief: as §1
# [27] = molecular target: Neu5Gc(b2-6)Gal(b1-4)GlcNAc
# Method in brief: as §1
binder,measurement,setting,value
B1,glycan array binding signal (z-score),[1],-0.169
same,glycan array binding signal (z-score),[2],-0.181
same,glycan array binding signal (z-score),[3],-0.147
same,glycan array binding signal (z-score),[4],-0.178
same,glycan array binding signal (z-score),[5],-0.155
same,glycan array binding signal (z-score),[6],-0.096
same,glycan array binding signal (z-score),[7],-0.155
same,glycan array binding signal (z-score),[8],-0.146
same,glycan array binding signal (z-score),[9],-0.117
same,glycan array binding signal (z-score),[10],-0.111
same,glycan array binding signal (z-score),[11],-0.103
same,glycan array binding signal (z-score),[12],-0.172
same,glycan array binding signal (z-score),Neu5Ac(b1-6)GalNAc,-0.21
same,glycan array binding signal (z-score),[13],-0.198
same,glycan array binding signal (z-score),Neu5Ac(b2-6)GalNAc,-0.226
same,glycan array binding signal (z-score),[14],-0.096
same,glycan array binding signal (z-score),[15],-0.167
same,glycan array binding signal (z-score),[16],-0.225
same,glycan array binding signal (z-score),[17],-0.158
same,glycan array binding signal (z-score),[18],-0.154
same,glycan array binding signal (z-score),Neu5Gc(a2-3)Gal(b1-4)Glc,-0.093
same,glycan array binding signal (z-score),[19],-0.149
same,glycan array binding signal (z-score),[20],-0.146
same,glycan array binding signal (z-score),[21],-0.074
same,glycan array binding signal (z-score),[22],-0.116
same,glycan array binding signal (z-score),Neu5Gc(a2-6)GalNAc,-0.17
same,glycan array binding signal (z-score),[23],-0.178
same,glycan array binding signal (z-score),[24],-0.173
same,glycan array binding signal (z-score),[25],-0.181
same,glycan array binding signal (z-score),[26],-0.159
same,glycan array binding signal (z-score),[27],-0.2
